# Test results taken from ChEMBL document CHEMBL4888484, “Replenishing the malaria drug discovery pipeline: Screening and hit evaluation of the MMV Hit Generation Library 1 (HGL1) against asexual blood stage Plasmodium falciparum ,using a nano luciferase reporter read-out” (2022).
# Screen size: about 150,000 compounds; about 540 (0.36%) showed an effect of 50% or more. The list shows a part of the results.
# System: Plasmodium falciparum
# Test: Primary screen in NF54 nanoGlo assay, in single point, at 2uM, 72h; a lower Z score goes with more inhibition
# Type: functional, Erythrocyte
# Settings: timepoint 72 hour
SMILES,% Inhibition [%],Z score
O=S(=O)(c1ccc(Oc2ccc3c(c2)OCO3)nc1)N1CCCCC1,-16,1.33
O=C(c1ccc(F)c(F)c1)N1CC(n2ccnn2)C1,-19,2.2
O=C(NCc1ccc(Cn2cccn2)cc1)c1ccc2ccccc2n1,-11,1.45
CCCC[C@@H](c1cccnc1)N(C)Cc1csc(C)n1,3,-0.46
O=C(COC1CCCC1)Nc1ccc(-c2ccccc2)cn1,6,-0.69
CC(C)C(=O)N(C)CC(=O)NCc1ccc(OC2CCCCC2)nc1,-10,1.36
COC[C@H]1CCCN1[C@@H]1[C@H](O)[C@H](CO)O[C@@H]1CNC(=O)c1cccc(F)c1,16,-1.88
Cc1cc(F)c(CNC(=O)N2CCS(=O)(=O)CC[C@@H]2C)c(F)c1,1,-0.08
Cc1ccc(CCNC(=O)N2CCCCO2)nc1,-15,2.88
Cc1nc2cc(NS(C)(=O)=O)cc(C(=O)NCc3ccccc3Cl)c2n1Cc1ccccc1,-6,0.89
CCN(CC)S(=O)(=O)CC(=O)NC1CC2CCC1C2 (stereo unspecified),10,-1.5
Cc1ccc(C(=O)N2CC[C@](C)(O)[C@H](Cc3ccccc3)C2)cc1C,1,-0.14
CC(C)(C)OCc1cc(C(=O)N2CCCCC[C@H]2c2ncon2)no1,0,-0.05
COc1ccc(C)cc1NC(=O)Cn1c(C)cc(C)c1-c1nc(C2CC2)no1,3,-0.32
CO[C@@H](C)c1nc(CN=C(N)N2CCCCCC2)cs1,-5,0.5
CCCCNC(=O)CN(C)C(=O)c1ncoc1C1CC1,-8,1.44
O=C(c1ccccc1C(F)(F)F)N1Cc2cccnc2C1,-7,0.83
Cc1ccc([C@@H]2CC(c3cn(-c4ccccc4)nc3-c3ccccc3)=NN2S(C)(=O)=O)cc1,-2,0.25
O=c1c2c(nc(N3CCOCC3)n1C1CCCCC1)CCC2,-28,3.27
CCOc1ccc(CN2CCC(C3CCCO3)C2C(=O)O)cc1 (stereo unspecified),-8,1.08
COc1cccc(OC)c1-c1ccccc1-c1nnc(C)o1,-1,0.23

SMILES,% Inhibition [%],Z score
COc1ncc(CN2CCC[C@H](CNC(=O)NC(C)(C)C)C2)cn1,-3,0.57
Cc1cnccc1CCNCc1nc2cc(F)ccc2o1,-13,1.8
CC(C)n1ccc2c(NC(=O)C[C@@H]3NC(=O)c4ccccc4N=C3O)cccc21,-3,0.52
O=C(Nc1ccc2c(c1)OCCO2)c1ccc(N2C(=O)CCS2(=O)=O)cc1Cl,-3,0.42
Cc1nscc1C(=O)N(C)c1cccnc1N1CCCC1,14,-1.28
COCCN(CCN(C)C)C(=O)c1ccc(Cl)c(Cl)c1,-5,0.71
O=C(C1CCCCCC1)N1CCN(c2ncccn2)[C@H]2CS(=O)(=O)C[C@H]21,7,-1.03
Cc1cc(C)c2c3ccccc3n(CCNC(=O)CC(C)(C)CC(=O)Nc3ccc4c(c3)OCO4)c2n1,9,-1.15
Cc1ccc(C)c([C@H](C)NCc2ccn(C)c(=O)c2)c1,-5,0.7
CN(Cc1nccn1C)C(=O)c1c[nH]nc1-c1ccccc1,-7,0.98
FC(F)(F)c1cc(C2CC2)nc2cc(-c3nnc(-c4ccncc4)o3)nn12,-46,5.36
CC(C)N1C(=O)[C@H](Cc2ccccc2)NC12CCN(C(=O)c1ccccc1Cl)CC2,-8,0.78
COC(C)[C@H](C)NC(=O)NCCc1ccc(C)nc1 (stereo partly specified),-8,0.9
C[C@](NCc1nnc(-c2ccco2)o1)(C(N)=O)c1cccc(Cl)c1,-9,1.18
Cc1ccc2c(c1)O[C@@H](C)CN2S(=O)(=O)c1cccnc1,-1,0.08
Cc1nn(C)c(-n2cccn2)c1C(=O)N1CCN(c2ncccn2)CC1,-13,1.57
O=C(Nc1cccc(Cl)c1)Nc1c(-c2ccc(C(F)(F)F)cc2)n[nH]c1C1CC1,-12,1.21
Cc1n[nH]c(C)c1CCC(=O)N1C[C@@H]2CC[C@H]1CN(S(=O)(=O)N(C)C)C2,-2,0.28
C[C@@H](c1ccncc1)N1CCC(NC(=O)NC2(CCO)CCC2)CC1,-7,1.37
C[C@H]1C[C@@H](C(F)(F)F)n2ncc(C(=O)N(C)[C@H]3CCC[C@@H]3O)c2N1,1,-0.1
Cc1ccnn1CC(=O)N1C[C@H]2CC[C@@H](C1)N(CC1CCC1)C2,-19,1.87

SMILES,% Inhibition [%],Z score
CCN(CC)c1ccc(C(=O)N2CCC(n3cc(-c4nc(C(C)C)no4)nn3)CC2)cc1,-9,1.03
C[C@@H](C(=O)Nc1ccccc1-c1ccccc1)N1CCCC1,14,-1.74
CC(C)[C@H]1COC(=O)N1CC(=O)N(Cc1ccccc1)C1CCCC1,14,-1.98
Cc1c(C(=O)N2CCC(C)CC2)c(S(=O)(=O)N2CCc3ccccc3C2)c(C)n1C,6,-1.01
CN(C)c1ccc(C(=O)NCc2ccc3c(c2)CCN3C(=O)c2ccccc2)cc1,-14,2.57
N#Cc1ccncc1N1CCC[C@H](F)C1,-1,0.18
Cc1cccc(OCC(=O)N2C[C@H](C3CC3)[C@@H](N)C2)c1,5,-0.94
CNS(=O)(=O)NC1CCN([C@@H](C)C(=O)N(C)Cc2cccc(F)c2)CC1,-6,0.66
CCc1nc(NC(=O)CN2CCO[C@H](c3cccs3)C2)sc1C,-10,0.91
Cc1cccc(NC(=O)CC(=O)NCC2(Cn3nc(C)cc3C)CC2)c1,8,-1.62
COC[C@H](C)NC(=O)NCc1cccs1,-6,0.77
CCCn1cc(CN2CCN(CC3CCCCC3)[C@@H](CCO)C2)c(C)n1,-14,2.02
CCOC(=O)C1CCN(C(=O)CN2C(=O)COc3ccc(C(=O)N(C)C)cc32)CC1,-8,1.04
O=C(c1ccccn1)N1CCCC[C@H]1c1nncn1CC1CC1,-5,0.85
Cc1nc(C)c(C(=O)O[C@@H](C)CCn2cccn2)s1,-1,0.1
CC(C)CN(Cc1ccsc1)S(=O)(=O)N1CCCC1,6,-1.09
O=C(NC[C@H]1CCCN1CC(F)(F)F)c1cc[nH]c(=O)c1,-12,1.83
C[C@H]1COCCN1C(=O)C1=CCCCO1,-14,1.49
Cc1c(C(=O)N(CC(=O)OC(C)(C)C)C(C)C)nnn1-c1cccc2ncccc12,15,-1.76
CN(CCC(=O)Nc1cccc(Br)c1)S(C)(=O)=O,-14,1.46
CCO[C@H]1COC[C@@H]1n1cc(-c2ccc3c(c2)OCCO3)nn1,-12,2.23

SMILES,% Inhibition [%],Z score
Cc1nc2c3ccccc3nc(CCN3C(=O)c4ccccc4N4C(=O)CC[C@]34C)n2n1,-13,1.84
CN(CCc1nc2ccccc2c(=O)[nH]1)CCc1nccs1,-8,0.82
Cc1ccc(C[C@H](C)N(C)S(=O)(=O)N(C)C)cc1,-3,0.4
COc1ccc(CNC(=O)Cn2nc(C)cc2C(=O)N2CCOCC2)cc1,0,-0.02
Cc1cccnc1NC(=O)C(F)(F)F,-13,1.74
COCC(=O)Nc1cc(C(=O)N(C)Cc2cnn(C)c2)c2c(c1)ncn2Cc1ccc(F)cc1,-5,0.58
CC(NC(=O)N1CCN(S(=O)(=O)c2ccc(Cl)cc2)CC1)C1CCCO1 (stereo unspecified),-2,0.32
O=C(CN1C(=O)COc2ccc(Cl)cc21)NCc1cccnc1,-4,0.71
O=C(NCCCc1ccccc1)N(Cc1ccco1)C1CCOCC1,-6,0.99
COc1ncccc1C(=O)N[C@H]1CCC(C)(C)c2ccccc21,6,-1.13
CCn1nc(C)cc1C(=O)Nc1cnccc1C(N)=O,27,-3.06
CN(Cc1cc(-c2ccccn2)no1)C(=O)c1cccc([C@H]2CCCNC2)c1,0,0.09
O=S(=O)(NC[C@@]1(COc2ccccc2)C[C@@H](O)[C@@H](O)C1)c1ccc(Cl)cc1,-7,1.09
COCc1c(C(=O)N2CCN(c3ccccn3)CC2)c(=O)cc(C)n1Cc1cccc2ccccc12,-2,0.27
O=C1c2ccccc2N[C@]2(C(=O)N(Cc3ccccc3F)c3ccccc32)N1c1ccccc1,-14,1.52
COc1cc(NS(=O)(=O)c2cnnn2C)cc(OC)c1,32,-3.61
Cn1ncnc1[C@@H]1COCCN1C(=O)c1ccccc1OC1CC1,-9,1.53
CC(C)(NC(=O)[C@@H]1Cc2ccccc2O1)c1cn(-c2ccccc2)nn1,-4,0.39
CC(=O)N1CCCN(C(=O)C[C@H](C)C2CCCCC2)CC1,3,-0.49
O=C(NCCc1ccns1)c1ccccc1C1CCC1,21,-3.32
